Reference: paper PMC10026737
No constants are given. Whether binding was seen depends on the method and setting. In cells and extracts the contact can be indirect. Some entries that bind do so weakly or less than the wild type. Where a sequence is shown, tags or fusion partners need not be part of it.

Legend:
Assay in all cases: co-IP; H1299 cells co-transfected with a Flag-tagged and a V5-tagged protein; NP40 lysis buffer (50 mmol/L Tris-HCl pH 8.0, 0.5% NP-40, 1 mmol/L EDTA, 150 mmol/L NaCl); IP with anti-Flag antibody, immunoblot
[1] = molecular target: T1, Flag-DGCR8 deletion mutant, C-terminal region (aa 501-773) (UniProt Q8WYQ5)
T1 sequence: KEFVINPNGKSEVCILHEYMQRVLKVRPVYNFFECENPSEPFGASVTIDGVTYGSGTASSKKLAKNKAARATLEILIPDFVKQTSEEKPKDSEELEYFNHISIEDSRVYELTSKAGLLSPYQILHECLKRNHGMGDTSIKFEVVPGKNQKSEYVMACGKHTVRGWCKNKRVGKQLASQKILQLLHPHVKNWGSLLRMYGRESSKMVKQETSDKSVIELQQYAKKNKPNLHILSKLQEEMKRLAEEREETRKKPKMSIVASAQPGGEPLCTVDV

[2] = molecular target: T2, Flag-DGCR8 (wild type, full length) (UniProt Q8WYQ5)
T2 sequence: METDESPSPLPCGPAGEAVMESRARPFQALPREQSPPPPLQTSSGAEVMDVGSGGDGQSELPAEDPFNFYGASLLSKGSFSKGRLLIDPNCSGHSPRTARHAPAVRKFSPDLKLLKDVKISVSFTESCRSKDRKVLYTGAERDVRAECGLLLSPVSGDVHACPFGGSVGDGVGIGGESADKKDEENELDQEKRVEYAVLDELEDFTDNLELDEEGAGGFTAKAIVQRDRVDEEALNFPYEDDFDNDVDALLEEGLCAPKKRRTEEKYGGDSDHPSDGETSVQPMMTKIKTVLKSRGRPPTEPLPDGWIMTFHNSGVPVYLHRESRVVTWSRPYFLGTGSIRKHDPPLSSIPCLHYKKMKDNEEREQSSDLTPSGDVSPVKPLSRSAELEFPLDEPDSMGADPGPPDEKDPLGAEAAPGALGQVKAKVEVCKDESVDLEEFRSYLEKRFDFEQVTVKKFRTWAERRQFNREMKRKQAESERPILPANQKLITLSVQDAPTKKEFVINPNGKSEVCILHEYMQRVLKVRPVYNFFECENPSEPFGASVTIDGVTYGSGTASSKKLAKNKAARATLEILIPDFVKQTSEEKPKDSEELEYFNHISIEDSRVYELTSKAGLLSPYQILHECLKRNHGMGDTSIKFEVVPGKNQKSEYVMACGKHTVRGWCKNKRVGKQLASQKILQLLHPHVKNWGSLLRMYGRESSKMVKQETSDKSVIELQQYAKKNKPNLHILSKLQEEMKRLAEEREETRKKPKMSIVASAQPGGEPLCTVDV

[3] = molecular target: T3, Flag-Drosha (full length) (UniProt Q9NRR4)
T3 sequence: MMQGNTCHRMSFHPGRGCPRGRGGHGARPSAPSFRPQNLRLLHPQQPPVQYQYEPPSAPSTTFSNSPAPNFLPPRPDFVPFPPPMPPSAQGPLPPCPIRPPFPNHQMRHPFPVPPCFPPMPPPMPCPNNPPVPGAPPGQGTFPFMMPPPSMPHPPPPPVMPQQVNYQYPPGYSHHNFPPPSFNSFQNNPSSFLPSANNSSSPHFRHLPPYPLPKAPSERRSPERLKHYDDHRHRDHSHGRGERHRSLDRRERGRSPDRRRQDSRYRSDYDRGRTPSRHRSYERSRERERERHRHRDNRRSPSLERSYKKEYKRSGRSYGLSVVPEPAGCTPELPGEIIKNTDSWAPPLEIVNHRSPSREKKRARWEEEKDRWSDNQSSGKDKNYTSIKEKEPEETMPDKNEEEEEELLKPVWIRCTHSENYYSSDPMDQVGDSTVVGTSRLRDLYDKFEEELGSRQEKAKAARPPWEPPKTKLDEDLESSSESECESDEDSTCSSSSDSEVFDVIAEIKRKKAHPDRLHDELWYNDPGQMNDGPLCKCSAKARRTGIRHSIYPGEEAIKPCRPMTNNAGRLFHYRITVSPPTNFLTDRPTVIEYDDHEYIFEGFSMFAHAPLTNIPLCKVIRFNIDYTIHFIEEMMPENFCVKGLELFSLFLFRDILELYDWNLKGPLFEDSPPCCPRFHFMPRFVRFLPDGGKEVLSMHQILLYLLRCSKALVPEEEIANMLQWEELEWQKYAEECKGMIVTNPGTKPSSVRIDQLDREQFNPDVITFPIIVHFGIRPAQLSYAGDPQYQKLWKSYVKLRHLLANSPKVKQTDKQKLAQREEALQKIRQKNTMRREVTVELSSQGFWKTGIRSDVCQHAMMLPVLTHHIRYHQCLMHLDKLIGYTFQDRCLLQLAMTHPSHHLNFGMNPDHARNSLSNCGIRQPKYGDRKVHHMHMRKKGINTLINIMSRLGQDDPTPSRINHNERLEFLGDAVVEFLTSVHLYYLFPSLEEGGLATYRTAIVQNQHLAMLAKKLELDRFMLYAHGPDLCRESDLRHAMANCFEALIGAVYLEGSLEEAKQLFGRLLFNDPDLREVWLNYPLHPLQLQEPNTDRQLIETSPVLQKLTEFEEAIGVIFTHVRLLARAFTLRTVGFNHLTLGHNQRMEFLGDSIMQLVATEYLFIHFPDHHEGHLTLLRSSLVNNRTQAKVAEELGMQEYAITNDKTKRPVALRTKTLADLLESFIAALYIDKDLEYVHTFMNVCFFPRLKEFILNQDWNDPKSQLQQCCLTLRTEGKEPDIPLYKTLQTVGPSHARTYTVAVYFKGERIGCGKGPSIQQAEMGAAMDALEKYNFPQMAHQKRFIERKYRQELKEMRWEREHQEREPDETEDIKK

- binding [1]: binds
- binding [2]: binds
- binding [3]: binds
B1: V5-tagged USP36 (enzyme, UniProt Q9P275 1-1123)
chain: MPIVDKLKEALKPGRKDSADDGELGKLLASSAKKVLLQKIEFEPASKSFSYQLEALKSKYVLLNPKTEGASRHKSGDDPPARRQGSEHTYESCGDGVPAPQKVLFPTERLSLRWERVFRVGAGLHNLGNTCFLNATIQCLTYTPPLANYLLSKEHARSCHQGSFCMLCVMQNHIVQAFANSGNAIKPVSFIRDLKKIARHFRFGNQEDAHEFLRYTIDAMQKACLNGCAKLDRQTQATTLVHQIFGGYLRSRVKCSVCKSVSDTYDPYLDVALEIRQAANIVRALELFVKADVLSGENAYMCAKCKKKVPASKRFTIHRTSNVLTLSLKRFANFSGGKITKDVGYPEFLNIRPYMSQNNGDPVMYGLYAVLVHSGYSCHAGHYYCYVKASNGQWYQMNDSLVHSSNVKVVLNQQAYVLFYLRIPGSKKSPEGLISRTGSSSLPGRPSVIPDHSKKNIGNGIISSPLTGKRQDSGTMKKPHTTEEIGVPISRNGSTLGLKSQNGCIPPKLPSGSPSPKLSQTPTHMPTILDDPGKKVKKPAPPQHFSPRTAQGLPGTSNSNSSRSGSQRQGSWDSRDVVLSTSPKLLATATANGHGLKGNDESAGLDRRGSSSSSPEHSASSDSTKAPQTPRSGAAHLCDSQETNCSTAGHSKTPPSGADSKTVKLKSPVLSNTTTEPASTMSPPPAKKLALSAKKASTLWRATGNDLRPPPPSPSSDLTHPMKTSHPVVASTWPVHRARAVSPAPQSSSRLQPPFSPHPTLLSSTPKPPGTSEPRSCSSISTALPQVNEDLVSLPHQLPEASEPPQSPSEKRKKTFVGEPQRLGSETRLPQHIREATAAPHGKRKRKKKKRPEDTAASALQEGQTQRQPGSPMYRREGQAQLPAVRRQEDGTQPQVNGQQVGCVTDGHHASSRKRRRKGAEGLGEEGGLHQDPLRHSCSPMGDGDPEAMEESPRKKKKKKRKQETQRAVEEDGHLKCPRSAKPQDAVVPESSSCAPSANGWCPGDRMGLSQAPPVSWNGERESDVVQELLKYSSDKAYGRKVLTWDGKMSAVSQDAIEDSRQARTETVVDDWDEEFDRGKEKKIKKFKREKRRNFNAFQKLQTRRNFWSVTHPAKAASLSYRR
